Experimental data as given in PubChem BioAssay AID1347417 (National Center for Advancing Translational Sciences (NCATS), 2020).
The whole screen tested about 120,000 compounds, of which about 5,300 (4.4%) were called active. Inconclusive means that the source gave no clear call. Such entries were picked first, then a sample of the others. Calls follow the shape of the dose curve; as a rule, active = well fitted inhibition curve with a large enough effect; inconclusive = small, poorly fitted or top-dose-only effect; inactive = no such curve, though single readings can be large or run the other way. Where the call is inconclusive, the potency comes from a doubtful curve fit.

Assay: qHTS Primary assay for Inhibitors of Plasmodium falciparum Dd2 growth in vitro; also: nearly all actives have a fitted effect of over 65% in size
Conditions: P. falciparum Dd2 growth, SYBR Green, 72 h; series mostly up to 28.9 µM
In short: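 Readout: SYBR Green fluorescence, 485 nm excitation, 535 nm emission, after ~16 h lysis at 37C. Before that, Dd2-infected red cells (2.5% hematocrit) grew 72 h with compound, 29 uM top final concentration.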
Potency is read from the fitted curve at half-maximal effect; tags tell the direction and shape of the fitted curve.

| SMILES | Potency |
| --- | --- |
| COc1ccc(-c2nc(C3CC(=O)N(c4ccc(OC)c(OC)c4)C3)no2)cc1F (centres undefined) | inactive |
| Cc1csc(NC(=O)[C@@H]2CCC[C@@H](NCC3CC3)CN(C)C(=O)C2)n1 | inconclusive: 31.6 µM [inhibitor, partial curve, poor fit] |
| COCCn1c(C)cnc1CC1CCCN(Cc2cccc(F)c2)C1 (centres undefined) | inconclusive: 7.94 µM [inhibitor, partial curve, poor fit] |
| CCCCN1C(=O)C(O)(c2c(C)[nH]c3ccccc23)c2cc(Br)ccc21 (centres undefined) | active: 11.2 µM |
| CN(CC1CCOCC1)C(=O)c1ccc(F)cc1Cl | inactive |
| COc1ccc(N2CCN(C(CNC(=O)C(=O)NCc3ccc(F)cc3)c3cccnc3)CC2)cc1 (centres undefined) | inconclusive: 17.8 µM [inhibitor, single point] |
| CCc1ccc(NC(=O)N(Cc2c[nH]c3ccccc23)C2CCCCCC2)cc1 | inconclusive: 11.2 µM [inhibitor, partial curve] |
| CN(C)c1ccc(NC(=O)Cn2cccc2-c2nc(-c3ccccc3)no2)cc1 | inconclusive: 12.6 µM [inhibitor, single point] |
| Cc1cc(NC(=O)C2CCCN(S(=O)(=O)c3ccc(Br)s3)C2)ccc1Br (centres undefined) | inconclusive: 10 µM [inhibitor, single point] |
| COc1ccc(-c2nn(-c3ccccc3)cc2CN2CCOC(C)(C)C2)c(F)c1 | inconclusive: 17.8 µM [inhibitor, single point] |
| CC(C)CN1C(=O)c2cccn2CC1CNC(=O)Cc1cccc(F)c1 (centres undefined) | inactive |
| Cc1cc(OCC(=O)NCC2(N(C)C)CCCCC2)cc(C)c1Cl | inconclusive: 0.562 µM [inhibitor, partial curve, poor fit] |
| COc1cccc(C2=NS(=O)(=O)N(C)C(C(=O)Nc3cccc(O)c3)=C2)c1 | inconclusive: 15.8 µM [inhibitor, single point] |
| Cc1ccc(-c2nnc(SCC(=O)NCCC(C)C)nc2-c2ccc(C)cc2)cc1 | inconclusive: 11.2 µM [inhibitor, single point] |
| Cc1ccc(CNC(=O)N2CCCC(Cc3noc(-c4cnccn4)n3)C2)cc1 (centres undefined) | inconclusive: 20 µM [inhibitor, partial curve, poor fit] |
| CN(C)C[C@@H]1CN(c2ncccn2)C[C@H]1NC(=O)c1ccc(Cl)s1 | inconclusive: 8.91 µM [inhibitor, single point] |
| COc1ccc(Cl)cc1NC(=O)CSc1nnc(C)n2c1cc1occc12 | inconclusive: 11.2 µM [inhibitor, single point] |
| CC(C)C1=NOC2(CCN(CC3CCCCC3)CC2)C1 | inconclusive: 20 µM [inhibitor, single point] |
| COCc1nc(-c2ccc(OC3CN(C(=O)c4ccc(OC)cc4)C3)cc2)no1 | inconclusive: 7.94 µM [inhibitor, single point] |
| O=C(Nc1ccc(Cl)cc1)c1nc2c(o1)CCN(Cc1ccncc1)CC2 | inconclusive: 2.51 µM [inhibitor, full curve] |

| SMILES | Potency |
| --- | --- |
| Cc1cc2c(cc1NC(=O)c1ccc(C(C)(C)C)cc1)n(C)c(=O)c(=O)n2C | inconclusive: 17.8 µM [inhibitor, single point] |
| CCOc1ccccc1CNC(=O)c1nn(C)c2c1CS(=O)(=O)c1ccccc1-2 | inconclusive: 20 µM [inhibitor, single point] |
| CCN(CC)C(=O)N1CCC2(CC1)C(OC)C(=O)N2c1cccc(F)c1 (centres undefined) | inconclusive: 17.8 µM [inhibitor, single point] |
| CC(C)c1ccc(CNc2nc(-c3ccco3)nn2S(=O)(=O)c2ccccc2)cc1 | inconclusive: 3.55 µM [inhibitor, full curve, poor fit] |
| COc1ccc(N2CCN(C(=O)Nc3nc(C)ns3)CC2(C)C)cc1 | inactive |
| Cc1ccc(NC(=O)Cn2cc(S(=O)(=O)N3CCN(c4ccccc4F)CC3)c3ccccc3c2=O)cc1F | inconclusive: 10 µM [inhibitor, single point] |
| Cc1csc2nc(COc3ccc(NC(=O)COc4ccc(F)cc4)cc3)cc(=O)n12 | inconclusive: 1.26 µM [inhibitor, partial curve, poor fit] |
| CCOc1ccc(/C=C/c2nc(C#N)c(N(C)C)o2)cc1 | inconclusive: 17.8 µM [inhibitor, single point] |
| COc1ccc(N2CCN(C(CNC(=O)c3ccc(C)cc3)c3ccc4c(c3)OCO4)CC2)cc1 (centres undefined) | inconclusive: 11.2 µM [inhibitor, single point] |
| O=C(CC1CCCC1)N1CCC(N2C(=O)C(O)C23CCCCC3)CC1 (centres undefined) | inactive |
| CCc1ccc(C(=O)N2CCN(C3CCN(CCc4ccccc4)C3=O)CC2)cc1 (centres undefined) | inconclusive: 11.2 µM [inhibitor, single point] |
| Cc1ccc(C)c(CSc2c(C(C)C)cnc3c2c(=O)n(C)c(=O)n3C)c1 | inconclusive: 14.1 µM [inhibitor, partial curve, poor fit] |
| COc1ccc(C(=O)N2CCN(S(=O)(=O)c3ccc(F)cc3)C[C@@H]2C(=O)N[C@H]2CCCNC2=O)cc1 | inactive |
| COc1ccc(-c2nc(C(C)C)nc3c2CCN(C(=O)C(C)(C)C)CC3)cc1 | inconclusive: 8.91 µM [inhibitor, partial curve, poor fit] |
| OC(c1ccccc1)c1nc(Nc2ccc3c(c2)OCO3)n[nH]1 (centres undefined) | inactive |
| CN(C)C[C@@H]1CN(c2ncccn2)C[C@H]1NC(=O)Cc1ccccc1F | inconclusive: 8.91 µM [inhibitor, partial curve, poor fit] |
| CCOC(=O)c1cnc2ccc(OCC)cc2c1N1CCN(c2cccc(Cl)c2)CC1 | inconclusive: 0.398 µM [inhibitor, partial curve, poor fit] |
| Cc1cnc(C(=O)N[C@@H]2CCC[C@@H]2C(=O)N2CCC(N3CCCCC3)CC2)cn1 | inconclusive: 17.8 µM [inhibitor, single point] |
| Cc1cc(CNC(=O)c2cccc(C3CCNC3)c2)ccc1F (centres undefined) | inconclusive: 12.6 µM [inhibitor, single point] |
